Laboratory results reported in PubChem BioAssay AID1460 (National Center for Advancing Translational Sciences (NCATS), 2008).
Values joined by “and” are separate entries in the source; they are usually repeats but may differ in a detail not shown here. Equal entries are not always repeated. Screen size: about 270,000 compounds; about 5,800 (2.1%) were called active. The shares of active, inactive and inconclusive entries below differ from those in the screen. Calls come from the whole dose curve; as a rule, active = well fitted inhibition curve with a large enough effect; inconclusive = small, poorly fitted or top-dose-only effect; inactive = flat fitted curve, though single readings scatter. A potency beside an inconclusive call is a rough fit, not a confirmed value.

Target: Microtubule-associated protein tau (Homo sapiens) (UniProt P10636)
Chain of UniProt P10636 (P10636 whole entry, looked up): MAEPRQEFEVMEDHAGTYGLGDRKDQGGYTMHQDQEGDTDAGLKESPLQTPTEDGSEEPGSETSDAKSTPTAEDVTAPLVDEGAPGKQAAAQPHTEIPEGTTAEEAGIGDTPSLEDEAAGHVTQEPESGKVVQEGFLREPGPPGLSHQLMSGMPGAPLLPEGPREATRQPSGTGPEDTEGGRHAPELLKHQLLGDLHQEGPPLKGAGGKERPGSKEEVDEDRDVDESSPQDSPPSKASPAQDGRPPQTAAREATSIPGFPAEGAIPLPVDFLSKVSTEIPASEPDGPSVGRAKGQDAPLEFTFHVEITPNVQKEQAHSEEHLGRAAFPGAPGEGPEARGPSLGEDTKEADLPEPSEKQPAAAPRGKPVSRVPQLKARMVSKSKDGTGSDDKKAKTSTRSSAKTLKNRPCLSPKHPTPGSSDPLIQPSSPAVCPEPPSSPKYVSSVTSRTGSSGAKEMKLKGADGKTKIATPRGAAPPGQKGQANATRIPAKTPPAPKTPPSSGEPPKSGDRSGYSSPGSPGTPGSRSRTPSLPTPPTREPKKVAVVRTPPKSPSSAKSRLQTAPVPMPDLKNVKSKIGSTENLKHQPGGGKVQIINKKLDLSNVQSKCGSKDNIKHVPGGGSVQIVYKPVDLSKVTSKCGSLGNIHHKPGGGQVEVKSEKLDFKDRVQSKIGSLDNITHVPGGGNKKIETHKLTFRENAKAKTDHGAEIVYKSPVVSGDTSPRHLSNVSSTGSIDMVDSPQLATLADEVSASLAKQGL
Test: qHTS for Inhibitors of Tau Fibril Formation, Thioflavin T Binding; note: nearly all actives have a fitted effect of over 55% in size
Details: recombinant tau K18 P301L (four-repeat tau fragment), heparin-induced fibrillization, ThT fluorescence; series mostly up to 57.4 µM; activity, negative = inhibition: at the top concentration
Outline: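 Recombinant human tau K18 fragment […] carrying P301L, 15 uM unlabeled plus 0.24 uM Alexa 594-labeled, was fibrillized with 20 uM heparin in 100 mM sodium acetate pH 7 for 6 hr at 37 C; 30 uM ThT fluorescence read after 1 hr.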
% is set by controls: 0 for no effect and ±100 for the full control effect; potency is the fitted concentration of half-maximal effect; tags give direction and shape of the fitted curve.

| SMILES | Potency | activity, negative = inhibition |
| --- | --- | --- |
| Cc1ccc(C)n1C(Cc1ccccc1)C(=O)O (stereo unspecified) | inconclusive: 20 µM [inhibitor, partial curve] | – |
| COc1ccc2nc3sc(C(=O)NCc4cccs4)c(N)c3cc2c1 | active: 15.8 µM | – |
| O=C(C1CCCCC1)N1CCC(n2nnc3ccccc32)CC1 | – | inactive: -1.43% |
| CCN(CC)c1ccc(/C=N/Nc2nc3ccccc3[nH]2)cc1 | active: 3.16 µM | – |
| C/C(=N/N1CCN(Cc2cccc3ccccc23)CC1)c1ccco1 | inconclusive: 35.5 µM [inhibitor, single point] | – |
| CCC1CCc2c(sc(NC(=O)c3ccoc3C)c2C(N)=O)C1 (stereo unspecified) | inconclusive: 5.01 µM [inhibitor, partial curve] | – |
| Cc1csc2nc(CSc3ccc(Cl)cc3)cn12 | inconclusive: 8.91 µM [inhibitor, partial curve] | – |
| O=C(Nc1ccc(Br)cc1F)C(NS(=O)(=O)c1cccc2nsnc12)c1ccccc1 (stereo unspecified) | inconclusive: 0.631 µM [inhibitor, full curve, poor fit] | – |
| Cc1cccc(C2c3[nH]c4ccccc4c3CCN2C(=O)c2ocnc2C)n1 (stereo unspecified) | – | inactive: -3.4% |
| Cc1cccc(OCCN2CSC(=S)N(C)C2)c1 | – | inactive: -13.2% |
| COc1ccc(OC)c(NC(=O)c2c(NCc3ccc(OC)c(OC)c3)sc3c2CCC3)c1 | inconclusive: 17.8 µM [inhibitor, partial curve] | – |
| CC1=C(/C=C/C(C)=C/C=C/C(C)=C\C(=O)O)C(C)(C)CCC1 | inactive | – |
| COc1ccc(OC)c(C(=O)CSc2nnc(-c3cccs3)n2C)c1 | inconclusive: 15.8 µM [inhibitor, partial curve] | – |
| CC1CCCCN1S(=O)(=O)c1ccc(NC(=O)c2cccc(-n3cnnn3)c2)cc1 (stereo unspecified) | – | inactive: 9.19% |
| O=C(Nc1ccc(Cl)c(Cl)c1)C1=Cc2ccccc2OC1 | inconclusive: 39.8 µM [activator, single point] | – |
| CCOc1ccc2cc(C3CC(c4ccco4)=NN3S(C)(=O)=O)c(Cl)nc2c1 (stereo unspecified) | – | inactive: -10.7% |
| CCOC(=O)C(N)CSC1CC(=O)N(c2ccc(C(=O)OC)cc2)C1=O (stereo unspecified) | – | inactive: -12% |
| COc1cccc(NC(=O)c2ncc(Cl)c(Cl)c2Cl)c1 | inconclusive: 31.6 µM [inhibitor, single point] | – |
| CC(=O)OCCNc1cc(SC(C)C)c2nonc2c1[N+](=O)[O-] | inconclusive: 25.1 µM [inhibitor, partial curve] | – |
| Clc1ccc2nc(Nc3ccccc3Cl)nc(-c3ccccc3)c2c1 | – | inactive: 0.901% |
| CCOc1ccc(-n2c(=O)c3c4c(sc3n(Cc3cccc(C)c3)c2=O)CCCC4)cc1 | – | inactive: -4.59% |
| COC(=O)CSc1nc2ccc(NC(C)=O)cc2s1 | inconclusive: 20 µM [inhibitor, partial curve] | – |
| CCOc1ccc(CC2NCCc3cc(OCC)c(OCC)cc32)cc1OCC (stereo unspecified) | inconclusive: 10 µM [inhibitor, partial curve] | – |
| CCCCc1nnc(NC(=O)CSc2nc(=O)cc(N)n2-c2cccc(C)c2)s1 | – | inactive: -2.06% |
| CC(C)(C)c1ccc(OCCCC(=O)NC2=NCCS2)cc1 | inconclusive: 14.1 µM [inhibitor, partial curve] | – |
| Cc1c(N=NC2=C(O)CC(C)(C)CC2=O)cc2c(c1[N+](=O)[O-])C(C)(C)CC2(C)C | inconclusive: 22.4 µM [inhibitor, partial curve] | – |

| SMILES | Potency | activity, negative = inhibition |
| --- | --- | --- |
| CS(=O)(=O)NCCCNc1ccc(Cl)cc1[N+](=O)[O-] | inconclusive: 17.8 µM [inhibitor, partial curve] | – |
| CCC(CC)C(=O)Oc1c(Sc2ccccc2[N+](=O)[O-])c(C)nn1C(C)(C)C | – | inactive: -9.97% |
| CCN1CCN(c2ccc(NC(=O)Cc3ccccc3)cc2)CC1 | – | inactive: -9.43% |
| COc1ccccc1CNC(=O)CSc1cc(=O)n(C)c2ccccc12 | inconclusive: 39.8 µM [inhibitor, single point] | – |
| Cc1ccc(NC(=O)Cc2ccccc2)c(C)c1 | – | inactive: 3.79% |
| COc1ccc(-c2cc(C(F)(F)F)nc(NCc3ccc(Cl)cc3)n2)cc1 | inconclusive: 44.7 µM [inhibitor, single point] | – |
| Cc1[nH]c2ccccc2c1N=Nc1ccccc1F | active: 12.6 µM | – |
| CCCCCn1c(=O)[nH]c2cc(C(=O)N3CCN(CC)CC3)ccc2c1=O | – | inactive: -5.79% |
| Oc1ccc(N=Nc2ccc(Br)cc2)c(O)c1 | active: 3.55 µM | – |
| COc1ccc2c(c1)c1c(c(=O)n(-c3ccc(F)c(Cl)c3)c(=O)n1CC(N)=O)n2C | – | inactive: -2.26% |
| COc1ccc(-n2nc(C#N)c(Cl)cc2=O)cc1 | inconclusive: 7.94 µM [inhibitor, full curve] | – |
| CSc1ccc2c(c1)N(CCC1CCCCN1C)c1ccccc1S2 (stereo unspecified) | inconclusive: 25.1 µM [inhibitor, partial curve] [middle of 4 runs] | – |
| N#Cc1ccc(CSCC(=O)NN=C2CCCC2)cc1 | – | inactive: -14.6% |
| COCC(C)n1c(C)cc(C(=O)CSc2ncccn2)c1C (stereo unspecified) | – | inactive: -7.47% |
| O=C(NCCc1ccccc1)C(NS(=O)(=O)c1cccc2nsnc12)c1ccccc1 (stereo unspecified) | – | inactive: -8.95% |
| CCOc1ccc(C(=S)N2CCN(C)CC2)cc1 | – | inactive: -1.7% |
| COc1cc(-c2noc(-c3ccc(N(C)C)c([N+](=O)[O-])c3)n2)cc(OC)c1OC | – | inactive: -3.36% |
| Cc1ccccc1Cn1cnc2c(nnn2Cc2ccc(F)cc2)c1=O | – | inactive: 7.93% |
| CCc1cc2c(N3CCCCC3)ncnc2s1 | – | inactive: -1.79% |
| Cc1cccc(C)c1NS(=O)(=O)c1ccc2c(c1)[C@H]1C=CC[C@H]1[C@@H](c1ccc(Cl)cc1)N2 | inconclusive: 7.94 µM [inhibitor, full curve, poor fit] | – |
| CCOC(=O)c1oc2ccccc2c1CSc1nnnn1-c1ccccc1 | – | inactive: -7.98% |
| CCOC(=O)N1CCC(NC(=O)c2ccc(N3CCC4(CC3)OCCO4)c([N+](=O)[O-])c2)CC1 | inconclusive: 20 µM [inhibitor, partial curve, poor fit] | – |
| CC(=O)NCC1CCCN(c2nc3nonc3nc2N(C)Cc2ccccc2)C1 (stereo unspecified) | – | inactive: 4.18% |
| COC(=O)C1=C(C)N(Cc2ccc(OC)cc2)C(=O)/C1=C\c1ccco1 | active: 25.1 µM | – |
| COc1ccccc1NC(=O)Nc1ccc(Cl)c(S(=O)(=O)Nc2ccccc2OC)c1 | – | inactive: -6.16% |
| COC(=O)c1ccccc1N=Nc1c(C)[nH][nH]c1=O | inconclusive: 15.8 µM [inhibitor, partial curve] | – |

| SMILES | Potency | activity, negative = inhibition |
| --- | --- | --- |
| COc1ccc(-n2c(=O)c3ccc(C(=O)NCc4ccc(C)cc4)cc3n(Cc3cccc(Cl)c3)c2=O)cc1 | – | inactive: 1.08% |
| CCOC(=O)c1c(N)sc2c1CCC(C)C2 (stereo unspecified) | inconclusive: 31.6 µM [inhibitor, partial curve] | – |
| Cc1ccc(NC(=O)Nc2nnc(Cc3ccc([N+](=O)[O-])cc3)s2)cc1C | inconclusive: 17.8 µM [inhibitor, partial curve] | – |
| COc1ccc(CCNC(=O)c2sc3ccccc3c2Cl)cc1OC | inconclusive: 4.47 µM [inhibitor, full curve] | – |
| O=C(COC(=O)c1ccc([N+](=O)[O-])o1)Nc1cccc2ccccc12 | inconclusive: 28.2 µM [inhibitor, single point] | – |
| CC(C)(Sc1ccc(CCN(CCCCC2CCCCC2)C(=O)NC2CCCCC2)cc1)C(=O)O | inconclusive: 15.8 µM [inhibitor, partial curve] and inconclusive: 25.1 µM [inhibitor, partial curve, poor fit] and inconclusive: 17.8 µM [inhibitor, partial curve] | – |
| CC(=O)Nc1cccc(C(=O)OC(C(=O)c2ccc(C)cc2)c2ccccc2)c1 (stereo unspecified) | – | inactive: 13.2% |
| COc1ccc(-n2nc3ccc(NC(=O)c4cccc(OCCC(C)C)c4)cc3n2)cc1 | inconclusive: 0.562 µM [inhibitor, full curve, poor fit] | – |
| O=C(CNC(=O)c1ccco1)N/N=C/c1ccc(O)c([N+](=O)[O-])c1 | inconclusive: 28.2 µM [inhibitor, partial curve] | – |
| Cc1nn(C)c2c1c(-c1ccccc1)cc(=O)n2Cc1ccc(F)cc1 | inconclusive: 12.6 µM [inhibitor, partial curve, poor fit] | – |
| Cc1ccc(-c2nc3c(c(=O)c4ccccc4n3C)c(=O)n2Cc2ccco2)cc1 | inconclusive: 20 µM [inhibitor, partial curve] | – |
| S=C(NCCc1ccccc1)NCc1cccs1 | – | inactive: -5.34% |
| COc1ccc(CCNC(=O)c2cnc3sc(N4CCOCC4)nn3c2=O)cc1 | inconclusive: 15.8 µM [inhibitor, partial curve] | – |
| CCOC(=O)c1cnc2c(ccc3ccccc32)c1Nc1cccc(Cl)c1 | inconclusive: 0.0251 µM [inhibitor, full curve, poor fit] | – |
| CCOC(=O)C1CCN(C(=O)CCc2ccccc2)CC1 | – | inactive: 5.62% |
| CC1CCN(c2oc(-c3cccs3)nc2S(=O)(=O)c2ccccc2)CC1 | – | inactive: -15.9% |
| NCCNS(=O)(=O)c1cccc2cnccc12 | inactive | – |
| Cc1cc(/C(N)=N/OC(=O)c2ccccc2Cl)no1 | – | inactive: -13.6% |
| CCc1c(C)sc2c1CCN(Cc1ccccc1C#N)C2c1ccccc1 (stereo unspecified) | inconclusive: 11.2 µM [inhibitor, partial curve, poor fit] | – |
| CC1CCCCC1NC1=NCCCS1 (stereo unspecified) | – | inactive: -1.15% |
| CCSc1nnc(NC(=O)C(C(F)(F)F)C(F)(F)F)s1 | active: 22.4 µM | – |
| O=C(c1ccco1)N1CCN(c2nc(C3CC3)nc3sc4c(c23)CCCC4)CC1 | inconclusive: 35.5 µM [inhibitor, single point] | – |
| Oc1oc(-c2ccccc2)nc1C=Nc1cccc2ccccc12 | inconclusive: 4.47 µM [inhibitor, full curve] | – |
| Cc1cnc(CNc2ncnc3ccc(-c4ccccc4C#N)cc23)cn1 | – | inactive: -1.23% |
